Laboratory results published in the supplement of paper PMC4967469.

Key:
Experiment in all cases: Viability of human cancer cell lines after 72 h of drug (GDSC screen)
QL-X-138 = compound: C=CC(=O)Nc1cc(-n2c(=O)ccc3cnc4ccc(-c5cn[nH]c5)cc4c32)ccc1C [QL-X-138]; settings: top dose 10.24 µM; top dose inferred
Procedure: (§1)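 Human cancer cell lines in 384-well plates, medium with 10% serum, drug for 72 h over a 256-fold dose range (nine 2-fold or five 4-fold steps up to the top dose). Adherent lines were fixed and stained with the nucleic acid dye Syto60, suspension lines read with resazurin; signal relative to control wells, capped at 0 and 100%. One two-parameter sigmoid per drug and line, fitted in a mixed model over all curves with the slope shared within a line.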

ABT-888 = compound: C[C@]1(c2nc3c(C(N)=O)cccc3[nH]2)CCCN1 [ABT-888]; settings: top dose 5 µM; top dose inferred
Procedure: as §1

Thapsigargin = compound: C/C=C(/C)C(=O)O[C@H]1C(C)=C2[C@H]([C@@H]1OC(=O)CCCCCCC)[C@@](C)(OC(C)=O)C[C@H](OC(=O)CCC)[C@@]1(O)[C@H]2OC(=O)[C@@]1(C)O [Thapsigargin]; settings: top dose 0.512 µM; top dose inferred
Procedure: as §1

MPS-1-IN-1 = compound: COc1cc(N2CCC(O)CC2)ccc1Nc1cc(Nc2ccccc2S(=O)(=O)C(C)C)c2cc[nH]c2n1 [MPS-1-IN-1]; settings: top dose 20 µM; top dose inferred
Procedure: as §1

CHIR-99021 = compound: Cc1cnc(-c2cnc(NCCNc3ccc(C#N)cn3)nc2-c2ccc(Cl)cc2Cl)[nH]1 [CHIR-99021]
Procedure: as §1

KU-55933 = compound: O=c1cc(-c2cccc3c2Sc2ccccc2S3)oc(N2CCOCC2)c1 [KU-55933]; settings: top dose 10 µM
Procedure: as §1

Zibotentan = compound: COc1nc(C)cnc1NS(=O)(=O)c1cccnc1-c1ccc(-c2nnco2)cc1 [Zibotentan]; settings: top dose 20 µM; top dose inferred
Procedure: as §1

ABT-869 = compound: Cc1ccc(F)c(NC(=O)Nc2ccc(-c3cccc4[nH]nc(N)c34)cc2)c1 [ABT-869]; settings: top dose 1.024 µM; top dose inferred
Procedure: as §1

(5Z)-7-Oxozeaenol = compound: COc1cc(O)c2c(c1)/C=C/C[C@H](O)[C@H](O)C(=O)/C=C\C[C@H](C)OC2=O [(5Z)-7-Oxozeaenol]; settings: top dose 10 µM; top dose inferred
Procedure: as §1

CP466722 = compound: COc1cc2ncnc(-n3nc(-c4ccccn4)nc3N)c2cc1OC [CP466722]; settings: top dose 16 µM; top dose inferred
Procedure: as §1

GSK269962A = compound: CCn1c(-c2nonc2N)nc2cnc(Oc3cccc(NC(=O)c4ccc(OCCN5CCOCC5)cc4)c3)cc21 [GSK269962A]; settings: top dose 5 µM; screen: GDSC drug entry 1192; top dose inferred
Procedure: as §1

[1] = top dose 2.56 µM, screen: GDSC drug entry 154
[2] = top dose 10 µM, screen: GDSC drug entry 1241, top dose inferred

Cell Line | AUC (QL-X-138) | IC50 (QL-X-138) | AUC (ABT-888) | IC50 (ABT-888) | AUC (Thapsigargin) | IC50 (Thapsigargin) | AUC (MPS-1-IN-1) | IC50 (MPS-1-IN-1) | AUC (CHIR-99021; [1]) | IC50 (CHIR-99021; [1]) | AUC (CHIR-99021; [2]) | IC50 (CHIR-99021; [2]) | AUC (KU-55933) | IC50 (KU-55933) | AUC (Zibotentan) | IC50 (Zibotentan) | AUC (ABT-869) | IC50 (ABT-869) | AUC ((5Z)-7-Oxozeaenol) | IC50 ((5Z)-7-Oxozeaenol) | AUC (CP466722) | IC50 (CP466722) | AUC (GSK269962A) | IC50 (GSK269962A)
G-402 (soft tissue, adherent) | 0.718 | 3.32 µM | 0.972 | > 5 µM | 0.257 | 0.00499 µM | 0.897 | > 20 µM | 0.969 | > 2.56 µM | 0.937 | > 10 µM | 0.964 | > 10 µM | 0.976 | > 20 µM | 0.801 | 0.703 µM | 0.693 | 2.63 µM | 0.763 | 7.63 µM | 0.798 | 3.33 µM
H4 (glioma, adherent) | 0.869 | 9.21 µM | 0.947 | > 5 µM | 0.179 | 0.00352 µM | 0.927 | > 20 µM | 0.963 | > 2.56 µM | 0.895 | > 10 µM | 0.986 | > 10 µM | 0.982 | > 20 µM | 0.986 | > 1.02 µM | 0.689 | 2.1 µM | 0.896 | > 16 µM | 0.801 | 2.41 µM
HARA (lung squamous cell carcinoma, adherent) | 0.674 | 2.14 µM | 0.926 | > 5 µM | 0.496 | 0.0312 µM | 0.868 | > 20 µM | 0.977 | > 2.56 µM | 0.973 | > 10 µM | 0.947 | > 10 µM | 0.976 | > 20 µM | 0.936 | > 1.02 µM | 0.846 | 9.21 µM | 0.769 | 7.02 µM | 0.849 | 4.76 µM
HCC-44 (lung adenocarcinoma, adherent) | 0.835 | 6.51 µM | 0.986 | > 5 µM | 0.045 | < 0.002 µM | 0.859 | 15.9 µM | 0.986 | > 2.56 µM | 0.933 | > 10 µM | 0.944 | > 10 µM | 0.924 | > 20 µM | 0.984 | > 1.02 µM | 0.678 | 1.94 µM | 0.782 | 6.5 µM | 0.587 | 0.537 µM
HCC-827 (lung adenocarcinoma, adherent) | 0.76 | 4.13 µM | 0.974 | > 5 µM | 0.87 | > 0.512 µM | 0.97 | > 20 µM | 0.984 | > 2.56 µM | 0.934 | > 10 µM | 0.978 | > 10 µM | 0.982 | > 20 µM | 0.979 | > 1.02 µM | 0.822 | 7.06 µM | 0.915 | > 16 µM | 0.927 | > 5 µM
HCT-15 (large intestine, adherent) | 0.899 | > 10.2 µM | 0.985 | > 5 µM | 0.704 | 0.125 µM | 0.865 | 19.4 µM | 0.974 | > 2.56 µM | 0.985 | > 10 µM | 0.965 | > 10 µM | 0.962 | > 20 µM | 0.978 | > 1.02 µM | 0.871 | > 10 µM | 0.767 | 6.29 µM | 0.96 | > 5 µM
HO-1-u-1 (head and neck, adherent) | 0.852 | 7.42 µM | 0.983 | > 5 µM | 0.3 | 0.00903 µM | 0.93 | > 20 µM | 0.988 | > 2.56 µM | 0.941 | > 10 µM | 0.973 | > 10 µM | 0.988 | > 20 µM | 0.984 | > 1.02 µM | 0.775 | 3.79 µM | 0.912 | > 16 µM | 0.9 | > 5 µM
Hep 3B2_1-7 (liver, adherent) | 0.913 | > 10.2 µM | 0.986 | > 5 µM | 0.135 | 0.00228 µM | 0.876 | 19.8 µM | 0.987 | > 2.56 µM | 0.978 | > 10 µM | 0.89 | > 10 µM | 0.986 | > 20 µM | 0.982 | > 1.02 µM | 0.31 | 0.184 µM | 0.967 | > 16 µM | 0.686 | 1.03 µM
HuP-T3 (pancreas, adherent) | 0.762 | 4.46 µM | 0.972 | > 5 µM | 0.418 | 0.0182 µM | 0.877 | > 20 µM | 0.975 | > 2.56 µM | 0.935 | > 10 µM | 0.969 | > 10 µM | 0.979 | > 20 µM | 0.981 | > 1.02 µM | 0.527 | 0.753 µM | 0.833 | 13.7 µM | 0.96 | > 5 µM
JEG-3 (urogenital system, adherent) | 0.988 | > 10.2 µM | 0.991 | > 5 µM | 0.287 | 0.00859 µM | 0.991 | > 20 µM | 0.99 | > 2.56 µM | 0.99 | > 10 µM | 0.981 | > 10 µM | 0.991 | > 20 µM | 0.984 | > 1.02 µM | 0.766 | 3.33 µM | 0.988 | > 16 µM | 0.937 | > 5 µM
JHU-011 (head and neck, adherent) | 0.649 | 1.64 µM | 0.972 | > 5 µM | 0.239 | 0.00574 µM | 0.86 | 16.3 µM | 0.979 | > 2.56 µM | 0.981 | > 10 µM | 0.931 | > 10 µM | 0.986 | > 20 µM | 0.973 | > 1.02 µM | 0.579 | 1.02 µM | 0.803 | 7.76 µM | 0.965 | > 5 µM

A lower IC50 marks a more sensitive line; a fit beyond the top or the lowest dose is shown as a bound at that dose. AUC, from the same fit, is the share of area under the viability curve across the 256-fold dose range: 1 means no effect, lower means more sensitive. For part of these data: An inferred top dose is not printed in the source and was worked back from the curve model. For part of these data: An entry number marks a drug with two screens in the source, which often give different values.
